Like-named read-outs stand apart in the source and are kept apart here.
System: Tacaribe TRVL11573
Assay type: cell-based, Tacaribe virus
Conditions: TRVL 11573, Vero

CC#CC1(O)CCC2C3CCC4=CC(=NNC(N)=S)CCC4=C3C(c3ccc4c(c3)OCO4)CC21C.CC#CC1(O)CCC2C3CCC4=CC(=O)CCC4=C3C(c3ccc4c(c3)OCO4)CC21C.CC(C)=O.CCO.O (stereo not drawn) [PT155, ⅓ (11β,17β)-17-Hydroxy-11-[3,4-(methylenedioxy)phenyl]-17-(1-propyn-1-yl)estra-4,9-dien-3-one (ORG34517)×(2EZ)-2-{(11β,17β)-17-hydroxy-11-[3,4-(methylenedioxy)phenyl]-17-(1-propyn-1-yl)estra-4,9-dien-3-ylidene}hydrazinecarbothioamide [71.8% (E), 28.2% (Z)] hemihydrate×¾% acetone× ⅛ ethanol]
EC50 (Neutral red): >3.8 µg/mL | EC50 (Visual): >5.9 µg/mL
